The record followed here is patent US5760092A, “Allocolchinones and uses thereof” (Brandeis University, priority 1996, dated 1998).

Each structure is given as a SMILES string. Where “and” joins values, the source holds several entries; their conditions need not be identical. Identical values can stand only once. Like-named read-outs stand apart in the source and are kept apart here.

Broadly, the TGI is the concentration at which net growth stops. Low readings indicate more potent growth arrest, high ones less potent growth arrest. Broadly, the GI50 is the concentration that inhibits growth by half. A higher GI50 goes with less potent growth inhibition.

For experiment [1], the system named is NCI-H522 non-small cell lung cancer cells.
Experiment [2] has as its system HCC-2998 colon cancer cells.
Experiment [3] concerns SK-MEL-5 melanoma cells.
For experiment [4], the system named is IGR-OV1 ovarian cancer cells.
In experiment [5] the test system is TK-10 renal cancer cells.
The subject of experiment [6] is MDA-MB-231/ATCC breast cancer cells.
Experiment [7] concerns HCC-2998 colon cancer cells. The experiment is described as follows: cells. As to conditions: Homo sapiens, HCC 2998.
Experiment [8] concerns TK-10 renal cancer cells. Description: cells. As to conditions: Homo sapiens, TK-10.
In experiment [9] the test system is MDA-MB-435 breast cancer cells. The experiment is described as follows: cells. As to conditions: Homo sapiens, MDA-MB-435, read-out: LC50.
For experiment [10], the system named is MDA-N breast cancer cells. Description: cells. As to conditions: Homo sapiens, read-out: LC50.
Experiment [11] has as its system T-47D breast cancer cells. Description: cells. As to conditions: Homo sapiens, T47D.

Turning to `COc1cc2c(c(OC)c1OC)-c1ccc(C(C)=O)cc1C(NC(C)=O)CC2` (centres unmarked), the TGI is 1360 nM in [1]; > 1000 nM and 886 nM in experiment [3]; greater than 1000 nM in experiment [4]; greater than 1000 nM in experiment [5]; greater than 100000 nM in experiment [6]. Also, the GI50 in [2] was 37.3 nM; in [7] it was 45.3 nM; in experiment [8], greater than 1000 nM; in experiment [11], greater than 1000 nM. Besides, the CC50 in experiment [9] is greater than 1000 nM; in [10] it was greater than 100000 nM.
